Screen size: about 310,000 compounds; about 18,000 (5.8%) were called active. This list was built around the results that the source calls inconclusive (neither active nor inactive); the mix of calls is not that of the screen. The call rests on the fitted dose curve; in most records, active means well fitted inhibition curve with a large enough effect; inconclusive means small, poorly fitted or top-dose-only effect, or another doubt; inactive means no such curve, though single readings can be large or run the other way. No potency is given beside an inconclusive call; the fits are too rough.
Assay: Primary qHTS for delayed death inhibitors of the malarial parasite plastid, 48 hour incubation
Conditions: P. falciparum luciferase growth in erythrocytes; series mostly up to 28.7 µM
Summary of the method: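 Growth was read as firefly luciferase luminescence after a 48 h, 37 C, 5% CO2 exposure of compounds to reporter-bearing P. falciparum cultures (0.1% parasitemia, 2% hematocrit final) in Albumax-supplemented RPMI 1640.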
Potency means the concentration at half of the fitted maximal effect; tags describe the fitted curve by direction and shape.

| Compound | Potency |
| --- | --- |
| C/C(=N/NC(=O)c1ccc(Cl)cc1Cl)c1cccnc1 | inactive |
| CCCCNCC(O)(c1ccc(Cl)cc1)c1ccc(Cl)cc1 | active: 13.1 µM |
| O=S(=O)(c1ccc2ccccc2c1)N1CCN(C2CCN(Cc3ccccc3)CC2)CC1 | inconclusive [inhibitor, single point] |
| Cc1ccc(S(=O)(=O)NC(CC(C)C)C(=O)N2CCCC2)cc1 (centres undefined) | inconclusive [inhibitor, full curve, poor fit] |
| COc1cc(NC(=O)c2ccc([N+](=O)[O-])o2)ccc1NC(=O)c1cccs1 | inconclusive [inhibitor, single point] |
| CCOC(=O)C1(Cc2ccccc2C(F)(F)F)CCN(C(C)CSC)CC1 (centres undefined) | inconclusive [inhibitor, single point] |
| COC(=O)c1ccccc1NC(=O)C/C(C)=N/NC(=O)Cc1ccc(Cl)cc1 | inactive |
| O=C(NCc1csc(-c2cccs2)n1)C1CCC1 | inactive |
| CN(C)S(=O)(=O)c1cccc(-n2sc3ccccc3c2=O)c1 | inconclusive [inhibitor, single point] |
| CC1(C)Cc2c(cnn2-c2ccc(F)cc2)C(NC(=O)CN2CCCC2=O)C1 (centres undefined) | inconclusive [inhibitor, partial curve, poor fit] |
| CC(CC(=O)NCCc1ccc(S(N)(=O)=O)cc1)c1ccccc1 (centres undefined) | inconclusive [inhibitor, partial curve, poor fit] |
| COc1ccc(C(=O)OCCCc2cc3ccccc3c(=O)o2)cc1 | inactive |
| Cc1cccc(C(=O)NCC(=O)N2CCN(c3ccc(Cl)cc3)CC2)c1 | inconclusive [inhibitor, partial curve, poor fit] |
| CCS(=O)(=O)Nc1ccc(C2=NN(C(=S)Nc3ccccc3)C(c3ccco3)C2)cc1 (centres undefined) | inconclusive [inhibitor, partial curve, poor fit] |
| O=C(Cc1ccccc1)Nc1ccc2c(c1)OC1(CCCC1)O2 | inactive |
| Cc1cccc(-c2ocnc2C(=O)Nc2ccccc2NC(=O)c2ccccn2)c1 | inconclusive [inhibitor, partial curve] |
| O=S(=O)(NCc1cn2ccsc2n1)c1ccc(Oc2ccccc2)cc1 | inactive |
| CN(C(=O)c1sc2nc(N3CCCC3)c3c(c2c1N)CC(C)(C)OC3)c1ccccc1 | inconclusive [inhibitor, partial curve] |
| NNC(=O)CN1C(c2cccc(Cl)c2)=Nc2ccc(Br)cc2C1c1ccccc1 (centres undefined) | active: 1.85 µM |
| Cc1cccc(C(=O)NCC(c2ccco2)N2CCc3ccccc32)c1 (centres undefined) | inconclusive [inhibitor, single point] |
| CC1(C)Cc2ccccc2C(=NC(Cc2c[nH]c3ccccc23)C(=O)O)N1 (centres undefined) | inconclusive [inhibitor, full curve, poor fit] |
| Nc1c(-c2ccccc2)cnn1-c1cccc(C(F)(F)F)c1 | inactive |
| COc1ccc(/C=C2\N=C(c3ccccc3)N(c3ccc(C(=O)O)cc3)C2=O)cc1OC | inconclusive [inhibitor, partial curve, poor fit] |

| Compound | Potency |
| --- | --- |
| CC(C)NC(=O)C1(c2ccccc2)CC1(Cl)Cl (centres undefined) | inactive |
| Cc1cc(OCC(=O)N(C)Cc2ccccc2)ccc1Cl | inactive |
| COc1ccc(CCNC(=O)CC(C)(C)CC2=NS(=O)(=O)c3ccccc3N2)cc1OC | inconclusive [inhibitor, partial curve, poor fit] |
| COc1ccc(NC(=O)/C(C#N)=C/c2ccc(Sc3nncn3C)c([N+](=O)[O-])c2)cc1 | inconclusive [inhibitor, single point] |
| CCCOc1nc2c(c(=O)n(C)c(=O)n2C)n1Cc1cccc2ccccc12 | active: 13.1 µM |
| Cc1[nH]c2ccccc2c(=O)c1SC(F)(F)C(F)C(F)(F)F (centres undefined) | active: 0.828 µM |
| COc1cc(-c2ccc(NC(=O)c3ccc(C)cc3)c(OC)c2)ccc1NC(=O)c1ccc(C)cc1 | inactive |
| CN(C(=O)CSc1nncn1-c1ccccc1)C1CCS(=O)(=O)C1 (centres undefined) | inactive |
| COC(=O)CCCC1=CC2=CC(=O)C(C)(OC(=O)c3cccs3)C(=O)C2=CN1CCCCO (centres undefined) | inconclusive [inhibitor, single point] |
| O=C(C1=C[C@H](c2ccc3c(c2)OCO3)C[C@H](OCc2ccc(CO)cc2)O1)N1CCCCCCC1 | inconclusive [inhibitor, partial curve, poor fit] |
| C=CCNCC(O)COc1ccc(C(C)=O)cc1OC (centres undefined) | inconclusive [inhibitor, full curve, poor fit] |
| Cc1nonc1CN(C)C(=O)c1ccc(OC2CCN(C(=O)c3cccnc3)CC2)cc1 | inactive |
| N#CC1=C(N)OC2=C(CCc3ccccc32)C1c1ccccc1Cl (centres undefined) | inconclusive [inhibitor, partial curve, poor fit] |
| COc1ccc(C2=NOC(Cn3nc(C(=O)NCc4cccs4)cc3-c3ccccc3)C2)cc1 (centres undefined) | inconclusive [inhibitor, single point] |
| Cc1ccc(N2C(=O)C3C(c4ccccc4)(C2=O)C3(c2ccccc2)c2ccccc2)cc1 (centres undefined) | inconclusive [inhibitor, partial curve, poor fit] |
| CCN(c1ccccc1)S(=O)(=O)c1ccc(C(=O)Nc2ccccn2)cc1 | inconclusive [inhibitor, full curve] |
| C[C@H]1C=C(C(=O)N2CCOCC2)O[C@@H](OCc2ccc(CO)cc2)C1 | inconclusive [inhibitor, single point] |
| CCOc1ccc(NC(=NCc2ccc3c(c2)OCO3)SC2CC(=O)N(c3ccccc3)C2=O)cc1 (centres undefined) | inconclusive [inhibitor, full curve] |
| Cc1cnn(-c2cc(N/N=C/c3ccc(F)cc3)ncn2)c1 | inactive |
| COc1cccc2c1C(=O)c1c(O)c3c(c(O)c1C2=O)C[C@](O)(C(C)=O)C[C@H]3O[C@@H]1C[C@@H](N)[C@@H](O)[C@@H](C)O1 | active: 0.928 µM |
| CCOC(=O)c1cnc2ccc(C(=O)OC)cc2c1NCc1ccco1 | inactive |
| O=C(N/N=C/c1ccsc1)c1cc2ccccc2o1 | inactive |
| C=CCn1c(NCc2ccccc2O)nc2ccccc21 | inconclusive [inhibitor, single point] |

| Compound | Potency |
| --- | --- |
| COc1ccc2nc(NC(=O)Nc3ccccc3OC)sc2c1 | inactive |
| CC(C)C[C@H]1CN=C(Nc2ccccc2)N1CCc1ccc(F)cc1 | inconclusive [inhibitor, single point] |
| COCc1nnc(NC(=O)c2ccc(S(=O)(=O)N3CCCc4ccccc43)cc2)o1 | inconclusive [inhibitor, partial curve] |
| CC(C)CN(C1CCS(=O)(=O)C1)S(=O)(=O)c1ccc2ccccc2c1 (centres undefined) | inconclusive [inhibitor, single point] |
| CCC(C)OC(=O)c1[nH]c2c(c1C)C(=O)CC(c1ccc(N(C)C)cc1)C2 (centres undefined) | inconclusive [inhibitor, single point] |
| O=C(/C=C/c1ccc2c(c1)OCO2)Nc1nc(-c2ccccc2)cs1 | inconclusive [inhibitor, single point] |
| CCCN1C(=O)c2ccccc2NC1c1ccc(Br)cc1 (centres undefined) | inconclusive [inhibitor, partial curve] |
| CCOc1cc(CNCCO)c(Cl)cc1OCC(=O)NCCc1ccccc1 | inconclusive [inhibitor, partial curve] |
| Cc1ccc(NS(=O)(=O)c2ccc(NC(=O)c3ccc(Br)o3)cc2)c(C)c1 | inconclusive [inhibitor, single point] |
| CCC(=O)N1CC2(CC(c3cccc([N+](=O)[O-])c3)=NO2)C[C@H]1C(=O)NCC(N)=O (some centres undefined) | inactive |
| Cc1ccc(NC(=O)c2cc(S(=O)(=O)N3CCc4ccccc43)cn2C)cc1C | inconclusive [inhibitor, single point] |
| Cc1nn(CC(=O)N2CCN(C)CC2)c(=O)c2ccccc12 | inactive |
| O=C(O)CC1Sc2ccccc2NC1=O (centres undefined) | inconclusive [inhibitor, full curve, poor fit] |
| COC(=O)C1=C(c2ccc3ccccc3c2)C[C@@H]2CC[C@H]1N2C(=O)NC1CCCCC1 | inconclusive [inhibitor, single point] |
| CCOc1ccccc1N1CCN(C(=O)c2ccc(NS(=O)(=O)c3ccc4[nH]c(=O)[nH]c4c3)cc2)CC1 | inactive |
| CCCOc1ccc(C(=O)CCC(=O)NNC(=O)Cn2nc(C)cc2C)cc1 | inactive |
| CCOc1ccccc1NC(=O)CCS(=O)(=O)c1ccc2c(c1)CC(C)N2C(C)=O (centres undefined) | inconclusive [inhibitor, single point] |
| O=C(/C=C1\NC2(CCCC2)Cc2ccccc21)C(=O)N/N=C/c1ccccc1O | inactive |
| N#Cc1c(NC(=O)CSc2nc(-c3ccco3)cc(C(F)(F)F)n2)sc2c1CCCC2 | inconclusive [inhibitor, single point] |
| Cc1ccc(C(=O)N2CCN(Cc3ccc4c(c3)OCO4)CC2)cc1[N+](=O)[O-] | inactive |
| CC(Oc1cccc(Cl)c1)C(=O)Nc1ccncc1 (centres undefined) | inconclusive [inhibitor, single point] |
| Cc1cccc(C)c1OCC(=O)Nc1cc(Cl)ccc1-n1cncn1 | active: 13.1 µM |
| COc1ccc(/C=C(/NC(=O)c2ccccc2)C(=O)N/N=C/c2sccc2C)cc1 | inactive |
